About 800 (1.6%) of roughly 50,000 compounds showed an effect of 50% or more. This is one part of the list.
The molecules below were run against Bcl-2-like protein 10 (Homo sapiens) (UniProt Q9HD36) (assay: Phenotype converters, Bcl-B/TR3 peptide binding displacement, primary biochemical FP (AID 1240;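 further: 0% = Bcl-B with tracer peptide and DMSO and 100% = tracer peptide lacking Bcl-B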)). Settings: GST-Bcl-B / FITC-TR3 peptide fluorescence polarization; stronger effect = higher value; compound at 3.75 mg/L.
Sequence of UniProt Q9HD36 (Q9HD36 whole entry, looked up): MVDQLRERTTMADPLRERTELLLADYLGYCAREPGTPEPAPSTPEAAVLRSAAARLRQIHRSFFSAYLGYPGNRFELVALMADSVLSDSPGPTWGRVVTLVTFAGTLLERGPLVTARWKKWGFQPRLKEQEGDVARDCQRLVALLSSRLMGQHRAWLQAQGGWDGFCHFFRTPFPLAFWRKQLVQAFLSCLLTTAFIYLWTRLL
With `Cc1cc(C)cc(NC(=O)C(=O)NCC(C)C)c1` the displacement was 5.1%.
`Cc1cc(C)n(S(=O)(=O)c2ccccc2[N+](=O)[O-])n1` gave a displacement of 11%.
Molecule `CC1=Nc2ccccc2/C1=C\c1sc(=S)n(-c2ccccc2)c1O` has a displacement of 104%.
Molecule `O=C1C(=O)N(c2ccccc2)C(c2ccc(O)cc2)/C1=C(\O)c1ccc(Br)cc1` (configuration not stated) has a displacement of 7.7%.
`CCOC(=O)Nc1sc(C)nc1-c1ccccc1` showed a displacement of 17%.
For `O=C(c1cc(Cl)ccc1Cl)N1CCCCC1`, the displacement was 4.2%.
`O=c1c2ccccc2nc(-c2ccco2)n1-c1cccc2ccccc12` was tested, and the displacement was 12.4%.
`CN1C(=O)C(c2c[nH]c3ccccc23)(c2c[nH]c3ccccc23)c2ccccc21` gave a displacement of 8%.
Molecule `O=C(Nc1ccc(C23CC4CC(CC(C4)C2)C3)cc1)c1ccccc1Cl` has a displacement of 16.4%.
Molecule `Cc1ccc(N2CC(C(=O)N3CCCCC3)CC2=O)cc1` (configuration not stated) has a displacement of -43.3%.
In the case of `CC(=O)Oc1ccc(C(=O)Nc2cccc(C(=O)O)c2)cc1`, the displacement is reported as 7.7%.
Molecule `COc1cc(/C=C2\SC(=S)NC2=O)cc(Br)c1OC(C)=O` has a displacement of 1.6%.
Molecule `CCN1C(=N)N(c2nc(N(C)C)nc(N(C)C)n2)CC1=O` has a displacement of 15%.
`Cc1cccc(C(=O)N/N=C/c2ccc(OC3CSC3)cc2)c1` showed a displacement of 2.5%.
`Cc1cc(C)c(/C=N/O)c(C)c1/C=N/O` gave a displacement of 5.3%.
Work on `O=C(/C=C/c1ccc(O)cc1)c1ccc(NC2=C(N3CCCCC3)C(=O)c3ccccc3C2=O)cc1` yielded a displacement of 13.5%.
`Cc1ccccc1C(=O)Nc1ccc(-c2nc3ccccc3[nH]2)cc1` gave a displacement of -3.8%.
Molecule `COc1cccc(-n2c(C=C3C(=O)Nc4ccc(Br)cc43)nc3ccccc3c2=O)c1` has a displacement of 1.8%.
In the case of `O=S(=O)(NCCN1CCOCC1)c1cc(Cl)ccc1Cl`, the displacement is reported as -12.2%.
For `Cc1nnc(NC(=O)/C=C/c2ccc(F)cc2)s1`, the displacement was -11.3%.
For `O=S(=O)(Nc1ccc(O)c(Br)c1)c1ccc(F)cc1`, the displacement was 15.9%.
With `O=c1c2c3c(sc2[nH]c(=S)n1-c1ccccc1)-c1ccccc1CC3` the displacement was 102%.
Molecule `CCNC(=O)/C(C#N)=C/c1ccc(O)c(OCC)c1` has a displacement of -10.7%.
`Cc1cc(C)nc(NS(=O)(=O)c2ccc(NC(=O)CSc3nnnn3-c3ccccc3)cc2)n1` gave a displacement of 6.5%.
With `C=CCN1C(=O)/C(=C\c2cccc(OS(=O)(=O)c3ccc(C)cc3)c2)SC1=S` the displacement was -1.3%.
`CCOC(=O)/C=C/c1cc(C(=O)OCC)c(/C=C/C(=O)OCC)cc1C(=O)OCC` was tested, and the displacement was -11.4%.
`CC(C)NC(=O)C(=O)Nc1ccc(Cl)c(Cl)c1` was tested, and the displacement was 6.1%.
For `Cc1cc(C)n(C(=O)CCC(=O)Nc2cccc(Cl)c2C)n1`, the displacement was -3.9%.
With `COc1ccc(CNC(=O)CN(c2cccc3ccccc23)S(C)(=O)=O)cc1` the displacement was -7.1%.
`CCC(C)OC(=O)c1cccc(-c2ccc(OC(C)=O)cc2)c1` (configuration not stated) was tested, and the displacement was 10.4%.
`CC1(C)CC(NC(=O)COc2ccccc2Cl)CC(C)(C)N1` gave a displacement of -6.7%.
`COc1cc(/C=N/N2CCN(Cc3cccc4ccccc34)CC2)cc(OC)c1O` was tested, and the displacement was 14.6%.
Work on `O=C(O)/C=C\C(=O)Nc1ccccc1SC(F)(F)F` yielded a displacement of 9.3%.
Work on `CC(=O)Nc1nc(O)c(/C=C2/C(C)=Nc3ccccc32)s1` yielded a displacement of -45.5%.
In the case of `Cc1ccccc1C(=O)Nc1cccc(NC(=O)COc2ccccc2Cl)c1`, the displacement is reported as 11.6%.
`CCOc1cccc(C(=O)Nc2sc(C)c(-c3ccc(C)cc3)c2C(=O)OC)c1` gave a displacement of -7%.
With `Cc1cc(C)c(NC(=O)C(=O)NCC(C)O)c(C)c1` (configuration not stated) the displacement was 1.9%.
`O=C1C(=O)N(c2cccc(Br)c2)C(c2ccccc2[N+](=O)[O-])/C1=C(/O)c1ccccc1` (configuration not stated) gave a displacement of -6.8%.
In the case of `Cc1cc(/C=C2\SC(=O)NC2=O)c(C)n1-c1ccc(-c2ccccc2)cc1`, the displacement is reported as -11%.
For `COc1ccccc1C/C(N)=N/OC(=O)c1ccccc1Br`, the displacement was 7.1%.
For `COc1ccc(N2C(=O)/C(=C\c3ccc(O)c([N+](=O)[O-])c3)SC2=S)cc1`, the displacement was -3.1%.
Work on `O=C1C(=Cc2ccc(O)c(Cl)c2)C(=O)c2ccccc21` yielded a displacement of -3.8%.
`COc1cccc(-c2nc3ncc(Br)cc3[nH]2)c1OC` was tested, and the displacement was 19.9%.
Molecule `Oc1ccccc1C(O)(c1ccccc1)c1ccccc1` has a displacement of 3%.
In the case of `COc1cc(NC(=O)CCCOc2ccccc2)c(OC)cc1Cl`, the displacement is reported as 71.9%.
With `COc1ccc(Br)cc1C(=O)Nc1ccccc1O` the displacement was 2%.
Molecule `O=C(c1cc2ccccc2oc1=O)N1CCN(C(c2ccccc2)c2ccccc2)CC1` has a displacement of 5.1%.
Work on `CCCC1=NN2C(=N)/C(=C/c3ccc(-c4ccc(F)cc4)o3)C(=O)N=C2S1` yielded a displacement of 135%.
`Cc1cccc(OCC(=O)Nc2ccc(N3CCOCC3)cc2)c1` gave a displacement of 1.8%.
With `CN1CCN(NC(=O)COc2ccc(Cl)cc2)CC1` the displacement was 3.3%.
For `Cc1ccc(NC(=O)c2ccn(C(=O)Nc3ccccc3)n2)c(C)c1`, the displacement was -1.6%.
`CC(C)CC(=O)NC(NC(=O)CC(C)C)c1cccc([N+](=O)[O-])c1` gave a displacement of -11.2%.
For `CC(=O)C1=C(O)C(=O)N(c2nc3ccccc3s2)C1c1ccc(Cl)cc1Cl` (configuration not stated), the displacement was 6.7%.
Molecule `NC(=O)c1ccccc1NC(=O)c1ccccc1F` has a displacement of 11.7%.
`CC(=O)Oc1ccc(C(=O)Nc2ccccc2C(=O)NCC(C)C)cc1` was tested, and the displacement was 10%.
In the case of `COc1ccc(/C(N)=N/OC(=O)c2ccccc2F)cc1`, the displacement is reported as 17.5%.
With `O=C(NCc1ccccc1)NC(=O)c1ccccc1F` the displacement was -3.1%.
Work on `Cc1ccc(S(=O)(=O)/N=C/c2ccco2)cc1` yielded a displacement of 5.6%.
For `Nc1cc(Cl)c(S(=O)(=O)N2CCOCC2)cc1S(=O)(=O)N1CCOCC1`, the displacement was -4.4%.
With `Cc1cccc(N2C(=O)C(=O)/C(=C(\O)c3ccccc3)C2c2ccc([N+](=O)[O-])cc2)c1` (configuration not stated) the displacement was 2.9%.
`COc1cc(C(=O)Nc2ccc(/C=C/C(=O)c3ccccc3)cc2)cc(OC)c1OC` was tested, and the displacement was -8.2%.
Molecule `c1ccc(C(c2ccccc2)N2CCN(c3nc4ccccc4n4cnnc34)CC2)cc1` has a displacement of 5.7%.
`CCOC(=O)/C(N=Nc1cccc(C)c1C)=C(/C)O` gave a displacement of 1.2%.
`Cc1cc(OCC(=O)N2CCN(c3ccc([N+](=O)[O-])cc3)CC2)ccc1Cl` was tested, and the displacement was 14.5%.
For `O=C1C2C3C=CC(C4CC34)C2C(=O)N1c1ccccc1Cl` (configuration not stated), the displacement was 19.3%.
Work on `O=C(CSc1cccc2cccnc12)N1CCOCC1` yielded a displacement of -2.3%.
Molecule `Cc1ccccc1C(=O)NNC(=O)c1ccc2ccccc2c1` has a displacement of -4.7%.
`Cc1ccc(NC(=O)CCCCC(=O)Nc2ccc(C)c(F)c2)cc1F` was tested, and the displacement was -10.4%.
For `NC1=NC(=O)/C(=C\c2ccc(-c3cccc(C(=O)O)c3)o2)S1`, the displacement was -0.5%.
`Cc1ccn2c(C(=O)N/N=C\c3cccs3)c(C)nc2c1` showed a displacement of -8.2%.
For `Cc1ccc(-c2nnc(NC(=O)Nc3cccc(Cl)c3)s2)cc1C`, the displacement was 13.5%.
Work on `CCOc1cc(/C=C2/SC(=Nc3ccc(Cl)cc3)NC2=O)ccc1O` yielded a displacement of -7.7%.
Work on `O=C(Cc1ccc(Br)cc1)Nc1ccccc1F` yielded a displacement of 8.3%.
`CC(=O)N=CC1=C(O)c2ccccc2C1=O` was tested, and the displacement was -3.5%.
`O=C(CSCC(=O)Nc1ccccn1)Nc1ccc2ccccc2c1` gave a displacement of -27.1%.
In the case of `O=C1CCCc2c1[nH]c1ccc(Cl)cc21`, the displacement is reported as 11.4%.
Work on `Cc1nnc(Nc2ccc3c(c2)ncn3C)c2ccccc12` yielded a displacement of -0.6%.
`Cc1ccc(NC(=O)C2CC3c4ccccc4C2c2ccccc23)cc1` (configuration not stated) was tested, and the displacement was -1.3%.
With `CCOc1ccc2nc(SCC(=O)Nc3cc(OC)ccc3OC)sc2c1` the displacement was 5.8%.
`Cc1ccc(-c2nn(CCC#N)cc2/C=N/O)o1` was tested, and the displacement was 4.6%.
`O=S(=O)(NCc1ccccn1)c1ccc(Br)cc1Br` gave a displacement of 9.2%.
`Cc1cnc(NC(=O)C2CC3CCC2C3)s1` (configuration not stated) was tested, and the displacement was 14.8%.
`Cc1ccccc1C(=O)Nc1ccc(S(=O)(=O)Nc2ncccn2)cc1` showed a displacement of -5.8%.
Molecule `S=c1[nH]nc(-c2cccc(Cl)c2)n1-c1ccccc1` has a displacement of 5.7%.
`CCCCOc1ccc(C(=O)NCc2ccc3c(c2)OCO3)cc1` showed a displacement of -11.5%.
Molecule `O=C(Cn1cc(/C=C2/C(=O)NC(=O)N(c3ccccc3F)C2=O)c2ccccc21)Nc1ccccc1` has a displacement of 51.1%.
Work on `FC(F)(F)c1cccc(Nc2nc(-c3ccccc3)cs2)c1` yielded a displacement of 8.1%.
`COc1cccc(N(CC(=O)Nc2cccc(Br)c2)S(=O)(=O)c2ccccc2)c1` gave a displacement of 4.4%.
Work on `COc1ccc(C(=O)Nc2ccc(Br)cc2C)c(OC)c1` yielded a displacement of 23.1%.
For `CCOc1ccc(N2C(=O)c3ccccc3NC2c2ccc(C)cc2)cc1` (configuration not stated), the displacement was 0.4%.
With `O=C(c1sc2ccccc2c1Cl)N1CCN(C/C=C/c2ccccc2)CC1` the displacement was -8.1%.
With `C/C(=N\Nc1nnc(-c2ccccc2)c(-c2ccccc2)n1)c1ccc(C)cc1` the displacement was 3.2%.
In the case of `O=C1c2ccccc2NC(c2ccc3c(c2)OCO3)N1Cc1ccco1` (configuration not stated), the displacement is reported as 14.2%.
For `CCCCc1nnc(NC(=O)CCN2C(=O)/C(=C/c3ccccc3)SC2=S)s1`, the displacement was 2.5%.
`CCc1nn2c(N)c(C=C3C=CC(=O)C=C3)c(=O)nc2s1` was tested, and the displacement was 1.9%.
Work on `O=C1CC(c2cc([N+](=O)[O-])c(Cl)cc2Cl)=NO1` yielded a displacement of 18.8%.
With `COc1ccc(-n2nc3ccc(NC(=O)COc4ccccc4Cl)cc3n2)cc1` the displacement was 19.9%.
`CSc1ccc(CN2CCN(C(=O)c3cccs3)CC2)cc1` gave a displacement of -2.2%.
`O=C(NCc1cccnc1)/C(=C/c1ccc(-c2cccc(Cl)c2)o1)NC(=O)c1ccccc1` gave a displacement of 15.2%.
With `COC(=O)c1c(NC(=O)C2CC2c2ccccc2)sc(C)c1C` (configuration not stated) the displacement was 2.6%.
For `O=C(COc1ccc(Cl)cc1Cl)Nc1ccc(I)cc1Cl`, the displacement was 12.3%.
For `Cc1ccc2c(c1)N(C(=O)CN1C(=O)C3CCCCC3C1=O)C(C)(C)c1ssc(=S)c1-2` (configuration not stated), the displacement was 7.6%.
Work on `Cc1ccccc1N(CC(=O)NCCc1ccc(Cl)cc1)S(=O)(=O)c1ccccc1` yielded a displacement of 7.4%.
`Cc1occc1C(=O)NNC(=O)c1cccc(F)c1` was tested, and the displacement was -8.4%.
Molecule `Cc1ccc(CN2CCN(/N=C/c3ccc(Br)s3)CC2)cc1` has a displacement of 8.3%.
`Cn1c(-c2ccccn2)nc2ccccc21` was tested, and the displacement was 31.1%.
With `COC(=O)C1=C(C)N(C)C(C)=C(C(=O)OC)C1c1ccc(OC)cc1OC` the displacement was -0.8%.
`CC1=NN(C(=O)c2cccnc2)C(O)(c2ccccc2)C1` (configuration not stated) was tested, and the displacement was -6.3%.
In the case of `COc1ccc(-c2cc(C(=O)NCCc3ccccc3)c3ccccc3n2)cc1OC`, the displacement is reported as -5.6%.
For `CC(/C=C1\SC(=S)N(NC(=O)c2cccc(O)c2)C1=O)=C\c1ccccc1`, the displacement was 2.3%.
Molecule `O=c1c(-c2ccccc2)[n+]([O-])c2ccccc2n1O` has a displacement of 21.7%.
`CCN(CC)c1ccc(/C=C2/SC(=S)N(CNc3cccc(C)c3)C2=O)cc1` showed a displacement of -7.4%.

— PubChem BioAssay AID1240 (Sanford-Burnham Center for Chemical Genomics, 2008)
